Experimental data taken from the supplement of paper PMC5499739.
Over roughly 16,000 sequences, “Z-score” has its median near -0.37; the highest 2% begin near 3.1. The list shows a part of the results.

Each sequence was assayed on RBM10 RRM1-ZnF-RRM2 (GST-tagged construct) (assay: RNAcompete 7-mer binding Z-score; higher = stronger binding preference).
Method: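 RNAcompete: 20 pmol GST-tagged RBM10 RNA-binding constructs were incubated with a designed RNA pool of about 241,000 sequences up to 41 nt (1.5 nmol) on glutathione beads for 30 min at 4 °C and washed. Bound RNAs were identified by microarray hybridisation. Each RNA 7-mer is scored by a one-sided Z-score of its enrichment, computed over probes that contain the 7-mer within longer pool sequences.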

Sequence	RNAcompete 7-mer binding Z-score
CCGCCGG	-0.46
CCGACAG	-0.453
UCAGGGG	1.46
AACCCAG	-0.409
GUGCACU	-0.18
AGUUUCC	-0.635
GCGAAAC	0.0786
UCGGCCG	-0.795
UUUCCCG	-0.766
CUAAGAA	-0.486
CUAUGAA	-0.457
CGCAUUU	-1.01
AUGGUAA	1.97
CCCGAGU	-0.555
CCGAUCA	-0.715
CUUGCUA	-0.73
CUCUGUU	-0.956
AUUAAAG	0.13
UGCAUUC	-0.755
AUAAUUA	-0.398
CAUCCCC	-0.657
GCAGAUG	0.949
UCGAGCA	-0.125

Sequence	RNAcompete 7-mer binding Z-score
ACUUUUC	-0.726
CAAGGAU	1.42
CCACGGC	-0.388
AGUAGGC	1.52
UAGAUUC	-0.344
UAAACCC	-0.675
AGAUCGA	-0.202
UCGGGCC	-0.358
GCUGGCC	-0.497
GAACAGA	0.745
GUGUUAC	-0.202
AGAGCAU	-0.471
GCCUGUU	-0.759
UCCUAAU	-0.755
AAAUAUG	0.024
UCAGGGA	2.05
UAGAUGG	2.16
AUUUGAC	-0.599
UAGUCUC	-0.581
AUCGUUU	-0.668
AUGGCUA	0.406
UGAACCU	-0.683
GCGGUGG	3.01

Sequence	RNAcompete 7-mer binding Z-score
AAUUAAU	-0.49
AACGCCA	-0.533
CGUGAAU	-0.289
UCCAAAC	-0.643
GGCAGGC	1.52
CUGCCAA	-0.843
GAUACAA	0.294
ACUUUCA	-0.828
CCUUGGU	-0.369
AUUCAAG	-0.158
GAGCGGU	1.51
AAUGAGU	0.457
CGGCUAG	-0.0415
CCCUGCG	-0.413
CGCUCGU	-0.46
AAACUAU	-0.541
GCAAGCC	-0.617
CUGGACG	0.352
UGGAGAA	1.73
UCUCUUC	-0.759
GAUUGGG	3.64
GCAAUAU	-0.187
ACACCCG	-0.566

Sequence	RNAcompete 7-mer binding Z-score
CACAUCU	-0.825
ACAACGC	-0.686
CCGAGCG	-0.00877
CGGUUCG	-0.133
CAGGUAA	1.39
GGGAACA	3.06
GGUUACG	1.35
GUGGUCG	1.63
UUCACCU	-0.825
CCUGUAC	-0.774
AAUCCAU	-0.522
ACAGCGA	0.37
UUUAAGG	0.315
AUACGGU	0.902
CGAGUAG	0.315
AGUUGUG	0.202
CGUGUCA	-0.486
GCAAAAA	-0.0306
UAUCCGG	-0.413
UGCAAUC	-0.526
GUGAGCC	0.159
UCCGAUA	-0.628
UCAAUAU	-0.391

Sequence	RNAcompete 7-mer binding Z-score
UGCGAUG	-0.0197
UAUUGGC	-0.18
AUGGAAU	1.75
GUAAGGU	2.57
AUCCGAG	-0.402
GGUAUGG	4.03
GCAAGAG	0.789
CAGACGU	-0.0452
CUGUUGA	-0.661
GCAACAA	0.0422
ACGGAUU	0.829
UAGCCUC	-0.744
UCAAUAC	-0.249
CAUAUUG	-0.366
ACACGCG	-0.264
UACGUCC	-0.635
UCACACG	-0.377
AAAUAGU	-0.202
GUGCCCA	-0.675
AGGACAA	1.29
AUAUCUA	-0.464
CCUGUAA	-0.777
CUUUAAA	-0.876

Sequence	RNAcompete 7-mer binding Z-score
UCCUUUU	-0.883
GGUGUCG	1.21
AAUCGUC	-0.639
GGGUUGC	1.92
AUGUCCA	-0.741
CUAUUUC	-0.912
ACGUUGU	-0.22
UAUAGGC	0.0969
CAAGAGA	-0.0816
GGGCUUU	0.315
CCAGACU	-0.799
GUACGUU	-0.224
UGCGGUG	1.37
UGAGUUU	-0.078
ACUUCAA	-0.595
GACGGGU	2.37
UAAGUAA	0.0859
ACACGAU	-0.424
UUACGAG	-0.191
UGUAGAG	0.978
GCUACGC	-0.362
UAGAACA	0.326
UACGUAU	-0.413

Sequence	RNAcompete 7-mer binding Z-score
UUUCAUA	-0.686
CCGCCCU	-0.737
AUCAGAU	-0.0161
UAUGGGU	2.81
GGCCUUA	-0.307
AUUAAAU	-0.42
UGUCAAU	-0.497
GAACUAG	-0.0853
CAAAAGA	-0.158
UACUAAC	-0.526
UCAAGAC	-0.537
CGUACAG	-0.00148
GCCGUCA	-0.526
AAUAGUA	0.261
CAGGUGG	2.53
UCUAGUG	-0.322
CUCGGUG	0.159
UCAACGU	-0.486
CAGCACU	-0.439
GACCGGC	-0.468
CUCCUUA	-0.817
UAUCCUC	-0.683
CGCGACU	-0.661

Sequence	RNAcompete 7-mer binding Z-score
UAAUUUU	-0.89
GAAUGUG	0.996
GUUCGUG	0.199
CGGUGCG	0.833
GGAUUAG	2.29
GCUGCCA	-0.708
CAAUCGU	-0.541
GUAAAGU	0.396
UGCUGCG	-0.34
ACAGAAA	-0.0233
CCACCGU	-0.566
AAGGUCA	1.15
UUGCCCG	-0.788
CCAGACG	-0.329
CCGGUCU	-0.701
GCGUGUA	0.472
AGCGGAG	2.29
CGUUAAC	-0.504
GGGGCAG	3.07
CUUAUUC	-0.905
GCCGGCU	-0.694
CAGACCU	-0.803
UGAUUUU	-0.876
